# Results: a collection of fitness landscapes (doi:10.1016/j.celrep.2020.107928)
# In all, about 81,000 sequences were measured (“one-hybrid fitness for binding parS DNA”: median about -0.17, highest 2% from about 0.51 on). The list shows a part of the results.
# B1: Caulobacter ParB omega fusion; a variant is named by its letters at X, in order, B8GW30 (parent)
# chain: MESVVVGEPGMSEGRRGLGRGLSALLGEVDAAPAQAPGEQLGGSREAPIEILQRNPDQPRRTFREEDLEDLSNSIREKGVLQPILVRPSPDTAGEYQIVAGERAWRAAQRAGLKTVPIMVRELDDLAVLEIGIIENVQRADLNVLEEALSYKVLMEKFERTQENIAQTIGKSXSHVANXMRLLXLPDEVQSYLVSGELTAXHARAIAAAADPVALAKQIIEGGLSVRETEALARKAPNLSAGKSKGGRPPRVKDTDTQALESDLSSVLGLDVSIDHRGSTGTLTITYATLEQLDDLCNRLTRGI
# Variants of: B1
# Test: one-hybrid fitness for binding parS DNA (scaled: cognate 1, non-cognate 0); higher = stronger binding
# Conditions: with parS DNA site
# Procedure, shortened: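 In E. coli USO, a HIS3 reporter with its site placed 19 bp from the promoter was used to select Caulobacter ParB variants randomised at four specificity codons. Growth lasted 48 hours at 37°C on histidine-free M9 containing 0.1 mM IPTG and 5 mM 3-AT. Fitness was taken as the log change in variant-to-wild-type read ratio from Illumina sequencing of pre- and post-selection plasmids, rescaled between the non-cognate and cognate sites.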
row,Variant,one-hybrid fitness for binding parS DNA
1,VLGN,≤ 0.2
2,QERR,≤ 0.2
3,PMQT,≤ 0.2
4,KNCR,≤ 0.2
5,SIIS,≤ 0.2
6,AVFR,≤ 0.2
7,YNTC,≤ 0.2
8,KPIL,≤ 0.2
9,EAET,≤ 0.2
10,RNFV,≤ 0.2
11,HNDR,≤ 0.2
12,QKLG,≤ 0.2
13,RRDC,0.701
14,HWKS,≤ 0.2
15,WKSD,≤ 0.2
16,LGSL,≤ 0.2
17,ETNW,≤ 0.2
18,IKRC,≤ 0.2
19,GQFS,≤ 0.2
20,EAFR,≤ 0.2
21,PPHI,≤ 0.2
22,KMLP,≤ 0.2
23,TFLV,≤ 0.2
24,NHSS,≤ 0.2
25,CYGC,≤ 0.2
26,RQVP,≤ 0.2

row,Variant,one-hybrid fitness for binding parS DNA
1,YHWW,≤ 0.2
2,IMII,≤ 0.2
3,GCQT,≤ 0.2
4,RGEE,≤ 0.2
5,KTNG,≤ 0.2
6,RDKR,≤ 0.2
7,HQHW,≤ 0.2
8,GNRT,≤ 0.2
9,SDNI,≤ 0.2
10,NADC,≤ 0.2
11,REQR,≤ 0.2
12,CMRA,≤ 0.2
13,SMAG,≤ 0.2
14,QYIG,≤ 0.2
15,VMEC,≤ 0.2
16,PLIS,≤ 0.2
17,RIWA,0.539
18,EPDY,≤ 0.2
19,VPLN,≤ 0.2
20,EYGT,≤ 0.2
21,GTKL,≤ 0.2
22,PQLQ,≤ 0.2
23,VPHW,≤ 0.2
24,IQQI,≤ 0.2
25,LPLP,≤ 0.2
26,QKTL,≤ 0.2

row,Variant,one-hybrid fitness for binding parS DNA
1,SNWF,≤ 0.2
2,YLSG,≤ 0.2
3,WMDN,≤ 0.2
4,GRPS,≤ 0.2
5,PYQM,≤ 0.2
6,RRKF,≤ 0.2
7,IHSV,≤ 0.2
8,SCDN,≤ 0.2
9,KMCG,≤ 0.2
10,GGWD,≤ 0.2
11,AGMD,≤ 0.2
12,GGKA,≤ 0.2
13,NTDN,≤ 0.2
14,PHPC,≤ 0.2
15,VCTP,≤ 0.2
16,CKNR,≤ 0.2
17,PSYL,≤ 0.2
18,CACK,≤ 0.2
19,KIQT,≤ 0.2
20,RQWE,≤ 0.2
21,RLRC,0.846
22,TVQR,≤ 0.2
23,AVMW,≤ 0.2
24,TYHT,≤ 0.2
25,KGWR,≤ 0.2
26,PWYT,≤ 0.2

row,Variant,one-hybrid fitness for binding parS DNA
1,KAPD,≤ 0.2
2,NDGT,≤ 0.2
3,RCPN,0.24
4,TYGS,≤ 0.2
5,TITF,≤ 0.2
6,WYEF,≤ 0.2
7,EEFL,≤ 0.2
8,QFRL,≤ 0.2
9,SVKT,≤ 0.2
10,NEVT,≤ 0.2
11,SAII,≤ 0.2
12,QMYI,≤ 0.2
13,LSSP,≤ 0.2
14,GATF,≤ 0.2
15,IHKS,≤ 0.2
16,KTCE,≤ 0.2
17,PTHI,≤ 0.2
18,HWII,≤ 0.2
19,LMDS,≤ 0.2
20,YAIL,≤ 0.2
21,MMKM,≤ 0.2
22,GSKL,≤ 0.2
23,IYIR,≤ 0.2
24,VQMF,0.218
25,KKQY,≤ 0.2
26,YPFW,≤ 0.2

row,Variant,one-hybrid fitness for binding parS DNA
1,FIRV,≤ 0.2
2,QVWM,≤ 0.2
3,SIYT,≤ 0.2
4,IRTG,≤ 0.2
5,NLNG,≤ 0.2
6,IKSG,≤ 0.2
7,PCFV,≤ 0.2
8,RWFG,0.615
9,FDYG,≤ 0.2
10,GLPN,≤ 0.2
11,MFCL,≤ 0.2
12,GCMA,≤ 0.2
13,PFKD,≤ 0.2
14,YLWC,≤ 0.2
15,AYKR,≤ 0.2
16,KQYT,≤ 0.2
17,TSKM,≤ 0.2
18,TPYG,≤ 0.2
19,DGCR,≤ 0.2
20,CKRH,≤ 0.2
21,TLLL,≤ 0.2
22,LREP,≤ 0.2
23,DFFL,≤ 0.2
24,HWTQ,0.216
25,EPVY,≤ 0.2
26,HESC,≤ 0.2

row,Variant,one-hybrid fitness for binding parS DNA
1,YYET,≤ 0.2
2,YHRT,≤ 0.2
3,QWVS,≤ 0.2
4,TVGA,≤ 0.2
5,MYKS,≤ 0.2
6,LEET,≤ 0.2
7,FKHA,≤ 0.2
8,IREN,≤ 0.2
9,ERYR,≤ 0.2
10,RICM,0.373
11,NQTE,≤ 0.2
12,VDEY,≤ 0.2
13,TCHE,≤ 0.2
14,IVGR,≤ 0.2
15,SYNQ,≤ 0.2
16,MVEF,≤ 0.2
17,AMWM,≤ 0.2
18,KERF,≤ 0.2
19,AKTQ,≤ 0.2
20,LNEG,≤ 0.2
21,QRKR,≤ 0.2
22,RSNA,0.596
23,LFLF,≤ 0.2
